Among all 360,000 compounds or so, about 25,000 (6.9%) were called active. The shares of active, inactive and inconclusive entries below differ from those in the screen. Calls follow the shape of the dose curve; as a rule, active = well fitted inhibition curve with a large enough effect; inconclusive = small, poorly fitted or top-dose-only effect; inactive = flat fitted curve, though single readings scatter. Where the call is inconclusive, the potency comes from a doubtful curve fit.
Target: Luciferin 4-monooxygenase (Photinus pyralis) (UniProt P08659)
Assay: qHTS profiling assay for firefly luciferase inhibitor/activator using purifed enzyme and Km concentrations of substrates (counterscreen for miR-21 project); also: nearly all actives have a fitted effect of over 55% in size;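 as to activity change, negative = inhibition: plate controls were vehicle for no effect and reference inhibitor for full effect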
Settings: purified FLuc, luminescence inhibition; activity change, negative = inhibition: at 57.5 µM (top of the series)
Outline: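 Purified P. pyralis luciferase, 10 nM final, with Km-level 10 uM D-luciferin and 10 uM ATP in 50 mM Tris acetate pH 7.5, 10 mM Mg acetate, 0.01% Tween-20, 0.05% BSA; 6-point qHTS titration about 60 µM downward; luminescence read.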
Potency is read from the fitted curve at half-maximal effect; tags tell the direction and shape of the fitted curve.

Sequence of UniProt P08659 (P08659 whole entry, looked up): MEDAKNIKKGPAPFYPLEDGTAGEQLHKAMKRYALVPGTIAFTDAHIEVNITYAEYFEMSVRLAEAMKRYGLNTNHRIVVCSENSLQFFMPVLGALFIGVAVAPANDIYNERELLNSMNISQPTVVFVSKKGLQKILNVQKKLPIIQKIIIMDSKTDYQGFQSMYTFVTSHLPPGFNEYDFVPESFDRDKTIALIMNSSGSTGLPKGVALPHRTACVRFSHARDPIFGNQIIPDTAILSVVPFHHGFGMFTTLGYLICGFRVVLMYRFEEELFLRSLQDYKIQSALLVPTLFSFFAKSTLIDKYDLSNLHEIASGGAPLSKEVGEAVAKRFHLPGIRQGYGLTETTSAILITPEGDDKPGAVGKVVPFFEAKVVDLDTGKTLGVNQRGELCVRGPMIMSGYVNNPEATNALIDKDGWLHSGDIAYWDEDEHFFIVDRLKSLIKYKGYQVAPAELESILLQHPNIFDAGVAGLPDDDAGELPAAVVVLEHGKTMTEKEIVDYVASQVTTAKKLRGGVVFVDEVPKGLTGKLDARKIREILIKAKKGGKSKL

Structure (SMILES) | Potency | activity change, negative = inhibition
O=C(O)c1ccc(CSc2nc3cccnc3n2Cc2cccc(F)c2)cc1 | inconclusive: 21.3 µM [inhibitor, partial curve, poor fit] | –
O=C(c1ccc(CSc2ccc(Cl)cc2)cc1)N1CCCC1 | active: 19 µM | –
Cc1ccc(C(=O)N2CCN(c3ccccc3O)CC2)cc1S(=O)(=O)N1CCCCC1 | – | inactive: -2.24%
CCc1nnc(NC(=O)c2cccc(S(=O)(=O)N(C)c3ccc(OC)cc3)c2)s1 | inconclusive: 16.9 µM [inhibitor, partial curve] | –
COc1cc(/C=N/NC(=O)C2COc3ccccc3O2)ccc1O (stereo not drawn) | inconclusive: 23.9 µM [inhibitor, partial curve, poor fit] | –
O=C1/C(=C/c2ccccn2)SC(=S)N1NS(=O)(=O)c1ccccc1 | inconclusive: 30.1 µM [inhibitor, single point] | –
CCOc1ccccc1NC(=O)c1ccccc1-c1nc(-c2ccccc2)no1 | inconclusive: 26.9 µM [inhibitor, single point] | –
Cn1c(CC(=O)Nc2ccccc2)nnc1SCC(=O)Nc1ccc(N2CCOCC2)cc1 | active: 12 µM | –
CC(C)CCOCC(=O)Nc1cccc(C(=O)O)c1 | active: 5.36 µM | –
CCSC1=NCCN1C(=O)c1ccc(S(=O)(=O)N(C)C)cc1 | – | inactive: -0.919%
Cc1ccc2oc(=O)c(-c3nc(-c4cccs4)no3)cc2c1 | inconclusive: 5.36 µM [inhibitor, partial curve] | –
COc1cccc(-c2cc(C(=O)Nc3ccc(OC)cc3OC)no2)c1 | inconclusive: 10.7 µM [inhibitor, partial curve] | –
CCC(=O)n1nc(-c2ccco2)nc1SCc1ccccc1 | active: 15.1 µM | –
O=[N+]([O-])c1ccc(N2CCSCC2)cc1 | – | inactive: -2.44%
O=C(COc1ccc([N+](=O)[O-])cc1)NC(C(=O)O)C(O)c1cccc([N+](=O)[O-])c1 (stereo not drawn) | – | inactive: 3.88%
O=S1(=O)CCC(NC(=S)SCCOc2ccccc2)C1 (stereo not drawn) | inconclusive: 21.3 µM [inhibitor, partial curve, poor fit] | –
O=C(COc1ccc2ccc(=O)oc2c1)Nc1nccs1 | active: 15.1 µM | –
Cc1ccc(/C=C/C(=O)Nc2cc(=O)n(C)c(=O)n2C)o1 | inconclusive: 16.9 µM [inhibitor, partial curve] | –
Cc1ccc(OCc2cn3cccnc3n2)cc1 | active: 21.3 µM | –
CCC(CC)NC(=O)c1cccc(NC(=O)C(C)C)c1 | – | inactive: -0.332%
O=C(Nc1nncs1)c1ccc(Br)c(S(=O)(=O)N2CCCC2)c1 | inconclusive: 23.9 µM [inhibitor, single point] | –
COc1cc(/C=N/Nc2nc(C)cc(C)n2)ccc1OC(=O)c1ccco1 | – | inactive: -17.6%
COc1ccc(N2CCN(C(=O)c3ccccc3NC(=O)C3=C(C)OCCS3)CC2)cc1 | – | inactive: 1.81%
CN1CCN(/N=C/c2cccc(Cl)c2Cl)CC1 | inconclusive: 30.1 µM [inhibitor, single point] | –
Cc1ccc(S(=O)(=O)CCC(=O)OCC(=O)Nc2ccc(N3CCOCC3)cc2)cc1 | inconclusive: 37.9 µM [inhibitor, partial curve, poor fit] | –

Structure (SMILES) | Potency | activity change, negative = inhibition
COc1cccc(N2CCN(C(=O)CCC(=O)c3ccc(Cl)s3)CC2)c1 | – | inactive: 3.78%
COC(=O)c1ccc(CSc2nccn2C)cc1 | inconclusive: 21.3 µM [inhibitor, partial curve, poor fit] | –
c1ccc(-c2nnc(SCc3cn4ccsc4n3)o2)cc1 | inconclusive: 16.9 µM [inhibitor, partial curve] | –
Cc1cc(C(=O)N/N=C/c2c3ccccc3cc3ccccc23)n[nH]1 | inconclusive: 21.3 µM [inhibitor, single point] | –
COc1cccc(-c2nnc(-c3ccccc3[N+](=O)[O-])o2)c1 | active: 9.53 µM | –
O=C(NCCc1c[nH]c2ccccc12)c1cccc(Br)c1 | inconclusive: 37.9 µM [inhibitor, single point] | –
COc1ccc(NC(=O)Cn2c(SCc3c(F)cccc3Cl)nc3ccncc32)cc1OC | inconclusive: 37.9 µM [inhibitor, partial curve, poor fit] | –
CCOc1ccccc1C(=O)Nc1cccc(-c2nnc(-c3ccccc3)o2)c1 | inconclusive: 6.75 µM [inhibitor, partial curve] | –
CCCc1ccc(OC(=O)c2sc3ncn(Cc4cccc(F)c4)c(=O)c3c2C)cc1 | – | inactive: -3.77%
COc1ccc(C)cc1NC(=O)CSc1nc(=O)n(CCCN2CCOCC2)c2c1CCCC2 | – | inactive: -1.39%
O=C(NNC(=S)NC(=O)c1ccco1)c1ccc(F)cc1 | inconclusive: 30.1 µM [inhibitor, partial curve, poor fit] | –
N#Cc1c(/N=C/c2cc3ccccc3s2)sc2c1CCC2 | inconclusive: 0.536 µM [inhibitor, full curve] | –
Cc1ccc(-c2onc(C)c2C)cc1S(=O)(=O)N1CCc2ccccc21 | – | inactive: -11.6%
Cc1ccc(S(=O)(=O)N(C)C)cc1NC(=O)CSc1nc2ncc(Cl)cc2[nH]1 | inconclusive: 37.9 µM [inhibitor, partial curve, poor fit] | –
COC(=O)c1ccc(NC(=O)C(c2ccccc2)N2Cc3ccccc3C2=O)cc1 (stereo not drawn) | inconclusive: 30.1 µM [inhibitor, partial curve, poor fit] | –
CC(C)c1ccc(/C=C2\SC(=O)N(CC(=O)NC3CCS(=O)(=O)C3)C2=O)cc1 (stereo not drawn) | active: 1.07 µM | –
CN(C(=O)c1ccc(OC2CCN(CCc3ccccc3)CC2)cc1)C1CCCCC1 | – | inactive: -2.22%
COc1ccc(-c2nnc(SCC(=O)c3ccc(O)cc3O)o2)cc1 | inconclusive: 12 µM [inhibitor, partial curve] | –
O=C(O)/C=C/C(=O)Nc1ccc(C2(c3ccc(NC(=O)/C=C/C(=O)O)cc3)c3ccccc3-c3ccccc32)cc1 | – | inactive: -12.8%
CC1=Nn2c(nc3sc4c(c3c2=O)CCCC4)SC1 | active: 21.3 µM | –
O=C(C1CC(c2ccc(F)cc2)=NO1)N1CCc2ccccc2C1 (stereo not drawn) | inconclusive: 26.9 µM [inhibitor, partial curve, poor fit] | –
COCCNC(=O)c1sc2nc3n(c(=O)c2c1C)CCC3 | inconclusive: 12 µM [inhibitor, partial curve, poor fit] | –
Cc1ccc(SCc2cc(=O)n(C)[nH]2)cc1 | inconclusive: 30.1 µM [inhibitor, partial curve, poor fit] | –
CCc1ccc(NS(=O)(=O)c2ccc3[nH]cc(C(=O)NCCc4ccccc4)c(=O)c3c2)cc1 | inconclusive: 13.5 µM [inhibitor, partial curve, poor fit] | –
CC1Sc2ccc(C(=O)Nc3ncccc3O)cc2NC1=O (stereo not drawn) | active: 7.57 µM | –

Structure (SMILES) | Potency | activity change, negative = inhibition
CN(C1CCCCC1)S(=O)(=O)c1ccc2c(c1)CCC(=O)N2 | – | inactive: 2.97%
O=C(Nc1nc(-c2cc(F)ccc2F)cs1)C1=NN(c2ccccc2)C(=O)CC1 | inconclusive: 10.7 µM [inhibitor, partial curve] | –
CCN(CC)CCCNC(=O)c1ccc2c(c1)NC(=O)C(CS(=O)(=O)Cc1ccc(F)cc1Cl)N2 (stereo not drawn) | – | inactive: 2.41%
CN(C)c1cccc(C(=O)NCCCSc2ccccc2)c1 | inconclusive: 30.1 µM [inhibitor, partial curve, poor fit] | –
COc1cccc(-c2noc(COc3cccc(C)c3C)n2)c1 | inconclusive: 15.1 µM [inhibitor, partial curve] | –
O=C(Nc1ccc(Br)cc1)c1ccc(Br)c(S(=O)(=O)Nc2cccnc2)c1 | inconclusive: 21.3 µM [inhibitor, single point] | –
CN(C)c1ccc(/C=N/n2cnn(Cc3ccccc3Cl)c2=S)cc1 | inconclusive: 9.53 µM [inhibitor, partial curve] | –
O=C1NCCCC1C(=O)N/N=C/c1ccc(Cl)cc1 (stereo not drawn) | inconclusive: 26.9 µM [inhibitor, partial curve, poor fit] | –
COc1ccccc1C(=O)Nc1cc(C)on1 | inconclusive: 26.9 µM [inhibitor, single point] | –
N#C/C(=C\c1ccccc1)c1nc(-c2cc3c(ccc4ccccc43)oc2=O)cs1 | – | inactive: -6.52%
O=C(NCCSCc1c(F)cccc1Cl)Nc1ccccc1 | active: 16.9 µM | –
O=C(COC(=O)c1cc(-c2cccs2)nc2ccccc12)NCc1ccco1 | inconclusive: 37.9 µM [inhibitor, single point] | –
CC1CCN(C(=O)CS(=O)(=O)Cc2ccccc2)CC1 | inconclusive: 37.9 µM [inhibitor, partial curve, poor fit] | –
Cc1ccn2cc(C(=O)Nc3nnc(C)s3)nc2c1 | active: 15.1 µM | –
COc1ccc(N2C(=O)c3ccccc3NC2c2cccnc2)cc1 (stereo not drawn) | – | inactive: 1.49%
Cc1cccc(CNC(=O)C2CCN(S(=O)(=O)c3cccc4nonc34)CC2)c1 | – | inactive: -2.02%
O=c1cc(O)c2c(=O)n(-c3ccccc3)c3c(c2o1)CCCCC3 | – | inactive: 4.09%
COc1ccccc1NC(=O)c1oc2ccccc2c1NC(=O)C1CC1 | – | inactive: -16%
COc1ccc(C2=NN(C)C(=NCc3ccccc3)SC2)cc1 | inconclusive: 23.9 µM [inhibitor, single point] | –
CCC1=Nc2cc(C(=O)N3CCC(C)CC3)ccc2Sc2ccc(C)cc21 | – | inactive: -6.34%
COc1ccc2cc(CCNC(=O)c3ccco3)c(=O)[nH]c2c1 | active: 12 µM | –
O=S(=O)(N/N=C/c1ccc(N2CCOCC2)cc1)c1ccccc1 | inconclusive: 42.6 µM [inhibitor, partial curve, poor fit] | –
CC(C)n1c(NCc2ccc(N(C)C)cc2)nc2ccccc21 | inconclusive: 26.9 µM [inhibitor, single point] | –

Source: PubChem BioAssay AID588342 (National Center for Advancing Translational Sciences (NCATS), 2011)
